Test results from PubChem BioAssay AID488969 (Vanderbilt High Throughput Screening Facility, 2010).
The full ranking holds about 110,000 compounds; the median of “z-score” is about -0.1, and the highest 2% start at about 2. The list shows a part of the results. Active and inactive are the calls of the source.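 How the source made its calls: active means z-score in the third read window above 3 or below -3; inactive means the rest.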

Molecular target: Metabotropic glutamate receptor 8 (Rattus norvegicus) (UniProt P70579)
Test: rat mGluR8 modulators via GIRK flux, primary screen, cell-based, thallium flux, HTS (AID 488969)
Conditions: HEK293 rat mGluR8, GIRK (G protein-gated inwardly rectifying potassium channel) thallium flux, FluoZin2; at 10 µM; stronger effect = higher value; submaximal glutamate (EC20) added with thallium

Sequence of UniProt P70579 (P70579 whole entry, looked up): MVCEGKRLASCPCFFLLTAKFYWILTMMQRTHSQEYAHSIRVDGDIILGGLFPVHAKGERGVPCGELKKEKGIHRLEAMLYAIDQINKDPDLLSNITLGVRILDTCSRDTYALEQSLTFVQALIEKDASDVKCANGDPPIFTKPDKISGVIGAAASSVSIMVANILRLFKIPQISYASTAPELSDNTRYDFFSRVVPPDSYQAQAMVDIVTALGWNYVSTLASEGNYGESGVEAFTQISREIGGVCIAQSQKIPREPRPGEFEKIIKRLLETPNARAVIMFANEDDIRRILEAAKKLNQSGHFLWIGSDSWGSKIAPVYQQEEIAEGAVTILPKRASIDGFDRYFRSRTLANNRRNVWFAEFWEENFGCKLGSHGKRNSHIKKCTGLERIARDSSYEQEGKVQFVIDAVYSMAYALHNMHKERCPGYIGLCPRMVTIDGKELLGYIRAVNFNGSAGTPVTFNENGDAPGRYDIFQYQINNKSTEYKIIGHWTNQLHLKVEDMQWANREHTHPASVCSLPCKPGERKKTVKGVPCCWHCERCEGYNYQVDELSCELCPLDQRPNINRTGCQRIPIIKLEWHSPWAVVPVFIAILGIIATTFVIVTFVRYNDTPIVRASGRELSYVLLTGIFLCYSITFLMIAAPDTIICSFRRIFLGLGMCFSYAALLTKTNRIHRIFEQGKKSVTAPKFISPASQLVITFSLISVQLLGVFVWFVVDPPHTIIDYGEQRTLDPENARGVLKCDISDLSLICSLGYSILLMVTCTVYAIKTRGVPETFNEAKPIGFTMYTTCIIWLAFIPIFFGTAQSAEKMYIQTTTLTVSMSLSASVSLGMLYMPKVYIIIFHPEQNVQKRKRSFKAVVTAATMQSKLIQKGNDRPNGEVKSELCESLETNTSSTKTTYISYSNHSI

Row | SMILES | z-score
1 | O=C(CCCOc1ccccc1)Nc1cccnc1 | -0.0925
2 | CCN(CC)CCCNC(=O)CCc1ccccc1 | -0.321
3 | CCN(CC)S(=O)(=O)c1ccc(OC)c(NC(=S)Nc2cccc(C)c2C)c1 | -0.257
4 | COc1ccc(CN2CCCCC2c2cccnc2)c(OC)c1C (centres undefined) | 0.0993
5 | Cc1cc(=O)oc2cc(OCC(=O)Nc3nnc(C(C)C)s3)ccc12 | 0.259
6 | O=C1OC(N2CCN(C(=O)C3CCCO3)CC2)c2ccccc21 (centres undefined) | 0.0461
7 | O=C(COc1ccc2ccccc2c1)NC1=NCCS1 | -0.121
8 | CC(C)C(OC(=O)c1ccco1)C(=O)NCc1cccs1 (centres undefined) | -0.943
9 | Cc1ccccc1C(=O)NNC(=O)CCC(=O)Nc1cccc(Cl)c1C | -0.34
10 | Cc1occc1C(=O)NCc1ccccn1 | 0.0437
11 | CC12CN3CCN(CC(C3)C1(O)CN1CCOCC1)C2 (centres undefined) | -1.33
12 | C(=N\Nc1nc2ccccc2[nH]1)/c1cccs1 | -0.236
13 | O=C(CN1CCN(S(=O)(=O)c2ccc(Br)cc2)CC1)N/N=C/c1ccco1 | -0.202
14 | COc1ccc(C(c2nnnn2C2CCCC2)N2CCC(C)CC2)c(OC)c1 (centres undefined) | -0.0441
15 | CC(C)[C@H](NC(=O)c1ccc(Cl)c([N+](=O)[O-])c1)C(=O)NCc1ccc(Cl)cc1Cl | -0.0903
16 | Cc1cc(NS(=O)(=O)c2ccc(C3CCCCC3)cc2)no1 | 0.245
17 | Cc1cc(NC(=O)CSc2nnc(-c3ccoc3C)o2)no1 | 1.14
18 | CCC(NC(=S)Nc1ccccc1)C(=O)O (centres undefined) | -0.128
19 | Cc1ccc(C(=O)Cn2nnc3ccccc32)cc1 | -0.246
20 | CCC(=O)NC(c1ccc([N+](=O)[O-])cc1)c1c(O)ccc2ccccc12 (centres undefined) | 0.825
21 | CCOC(=O)C1=C(C)Nc2nnnn2C1c1ccccc1Cl (centres undefined) | active: -3.29
22 | CC(OC(=O)c1cc2sccc2n1C)C(=O)NCc1ccco1 (centres undefined) | -0.0576

Row | SMILES | z-score
23 | CCOC(=O)c1c(NC(=S)Nc2ccccc2)sc2c1CCCCC2 | active: 3.94
24 | COc1ccc(S(=O)(=O)n2nc(OC(=O)c3ccccc3Br)cc2N)cc1 | -0.341
25 | O=C(CCCSc1nc2sc3c(c2c(=O)[nH]1)CCC3)NCCO | -0.0186
26 | Cc1ccc2c(Cl)cc(Cl)c(OCc3c(C)noc3C)c2n1 | -0.811
27 | Cc1ccc2[nH]c(=O)c(CN(Cc3ccco3)S(=O)(=O)c3c(C)ccc4nsnc34)cc2c1 | -0.286
28 | CC(C)CC(=O)NC(=S)Nc1ccc(S(=O)(=O)NC(C)(C)C)cc1 | -0.107
29 | CC1=CC(C)(C)Nc2ccc(OC(=O)CN3C(=O)c4ccccc4C3=O)cc21 | -0.184
30 | Cc1cc(C)c(S(C)(=O)=O)c(Oc2ccc(C(C)(C)C)cc2)n1 | -0.314
31 | Cc1cc(NS(=O)(=O)c2ccc(NC(NC(=O)C(C(F)(F)F)C(F)(F)F)(C(F)(F)F)C(F)(F)F)cc2)no1 | -0.151
32 | O=C(C1CCN(S(=O)(=O)c2cccnc2)CC1)N1CCN(c2ccccc2Cl)CC1 | -0.0943
33 | Cc1c(N(C(=O)Nc2ccccc2)C2=NCC(C)S2)c(=O)n(-c2ccccc2)n1C (centres undefined) | -0.23
34 | O=C(COC(=O)c1n[nH]c2ccccc12)NC(=O)NCc1ccco1 | -0.182
35 | COc1ccccc1CNC(=O)c1ccc(NS(C)(=O)=O)cc1 | -0.43
36 | O=C(N/N=C/c1cccc(F)c1)c1csc2c1CCCC2 | -0.028
37 | CC(=NC1CCCCC1)C1=C(O)c2ccccc2C1=O | -0.199
38 | CC1CC(C)CN(C/C=C/c2ccccc2[N+](=O)[O-])C1 (centres undefined) | 0.224
39 | CN(C(=O)c1ccc2c(c1)OCO2)C1(C(=O)NC2CCCCC2)CCCCC1 | -0.211
40 | Cc1cc(C(=O)N/N=C/C=C/c2ccc3c(c2)OCO3)n[nH]1 | -0.346
41 | CCc1cccc(NC(=O)CCSCCC(=O)Nc2cccc(CC)c2)c1 | active: 3.02
42 | O=C(Nc1cc(Sc2nc3ccccc3s2)cc([N+](=O)[O-])c1)c1ccccc1 | -0.37
43 | CC(=O)c1ccc(S(=O)(=O)NCCCC(=O)NCCc2ccccn2)cc1 | -0.0522
44 | CCN(CC)NC(=S)Nc1ccccc1 | 0.0841

Row | SMILES | z-score
45 | O=C(Cn1cnc2c(nnn2Cc2ccc(F)cc2)c1=O)N1CCCc2ccccc21 | -0.622
46 | CC(C)CNS(=O)(=O)c1ccc(S(=O)(=O)NC2CCOC(C)(C)C2)cc1 (centres undefined) | -0.235
47 | COc1cc(C(=O)Nc2ccc(-c3nnc(-c4ccco4)o3)cc2)cc(OC)c1OC | 0.0264
48 | CCOc1ccc2nc(SCc3ccc(F)cc3)sc2c1 | -0.288
49 | COc1ccccc1C(=O)Nc1ccc(S(=O)(=O)Nc2cc(C)on2)cc1 | -0.339
50 | CC(C)(CO)N=Cc1c(O)[nH]c2ccccc12 | -0.658
51 | CCSc1nc2c(c(=O)[nH]1)C(c1ccncc1)C(C(=O)OC(C)C)=C(C)N2 (centres undefined) | -1.21
52 | Cc1ccc(C(=O)N/C(=C\c2ccc(C(C)C)cc2)C(=O)NCCCN2CCOCC2)cc1 | -0.299
53 | O=C(CCCn1c(=O)[nH]c2cc(Cl)ccc2c1=O)NCCC1=CCCCC1 | 0.71
54 | NC(=O)c1oc2ccccc2c1NC(=O)c1nc2ccccc2s1 | -0.927
55 | CCCCSc1nc(O)c(C2OC(=O)c3c2ccc(OC)c3OC)c(=O)n1-c1ccccc1 (centres undefined) | -1.03
56 | O=C(CSc1n[nH]c(-c2cccs2)n1)NCc1ccc2c(c1)OCO2 | -0.611
57 | Cc1ccc(C(=O)NCCc2csc(-c3cccnc3)n2)cc1 | 1.03
58 | Cn1c(=O)c2cc(S(=O)(=O)NC(C(=O)Nc3cccc(F)c3)c3ccccc3)ccc2n(C)c1=O (centres undefined) | 0.186
59 | COc1ccc(C2=NOC3(CC(=O)N(c4ccc(Cl)cc4)C3=O)C2)c(OC)c1 (centres undefined) | 0.285
60 | CC(C)CCn1cnc2c(cnn2-c2ccc(F)cc2)c1=O | -0.575
61 | Cc1cc(C)cc(OCC(=O)OCC(=O)c2ccc3c(c2)NC(=O)CO3)c1 | -0.225
62 | Cc1noc(C)c1S(=O)(=O)N1CCCC(C(=O)N2CCC(C)CC2)C1 (centres undefined) | 1.01
63 | COc1ccc(N(CC(=O)Nc2ccccc2C(=O)NCCc2ccccc2)S(C)(=O)=O)cc1OC | -0.431
64 | Cc1ccc(-c2noc(-c3ccccc3C(=O)NCC3CCCO3)n2)cc1 (centres undefined) | -0.709
65 | CCOc1ccc(C(=O)CC(=O)C(=O)NCCc2ccc(OC)c(OC)c2)cc1 | -0.0424
66 | c1ccc(Nc2nc(N3CCCCC3)nc(N3CCCCC3)n2)cc1 | -0.283

Row | SMILES | z-score
67 | O=C(CSc1nnc2ccccn12)c1ccc2c(c1)OCCO2 | 0.538
68 | CC(C)NC(=O)c1ccccc1NC(=O)C1COc2ccccc2O1 (centres undefined) | -0.252
69 | c1ccc(CNC2=NCCC2)nc1 | -0.926
70 | COc1ccc(Nc2ccc(S(=O)(=O)N3CCCCC3)cc2[N+](=O)[O-])cc1 | 1.48
71 | CCc1ccccc1N1CSC2=C(C#N)C(c3ccccc3F)CC(=O)N2C1 (centres undefined) | -0.115
72 | Cc1nc2c(o1)CCc1ccccc1C2O (centres undefined) | -0.338
73 | CCOC(=O)c1nnn(CC(=O)N2N=C(c3ccccc3)CC2c2ccccc2)c1C(=O)OCC (centres undefined) | 0.339
74 | CCCn1c(=NC(C)=O)c(C(=O)OCC)cc2c(=O)n3ccccc3nc21 | -0.42
75 | CC1CCc2c(C(=O)Nc3nccs3)csc2C1 (centres undefined) | -0.208
76 | Cc1ccc(/C=C/C(=O)Nc2cccc(S(=O)(=O)N3CCOCC3)c2)o1 | 0.0167
77 | Cc1cc(C)c(C(=O)CSC2=NC(N)=C(C#N)C3(CCCCC3)C2C(N)=O)cc1C (centres undefined) | 0.332
78 | CCOC(=O)C1=C(C)N=C2SCCC(=O)N2C1c1sccc1C (centres undefined) | -2.13
79 | COc1cc(C2c3c(-c4cc(C)cc(C)c4O)n[nH]c3C(=O)N2CCCO)cc(OC)c1OC (centres undefined) | -0.272
80 | CCCCN(C)C(=O)CCCc1c[nH]c2ccccc12 | -0.0422
81 | COc1ccc(N2CCN(C(=O)CCCSc3nc4ccccc4[nH]3)CC2)cc1 | -0.47
82 | CN(C)c1nc(N(C)C)nc(N(C#N)CN2C(=O)c3ccccc3C2=O)n1 | -0.351
83 | COc1cc(NC2c3ccccc3C(=O)N2c2cc(C)ccn2)cc(OC)c1OC (centres undefined) | 0.39
84 | O=C1CN(c2ccc(Br)cc2)C(=O)N1CC(=O)N1CCCc2ccccc21 | -0.157
85 | COc1cccc(N2CC(C(=O)Oc3ccc4ccccc4c3)CC2=O)c1 (centres undefined) | -0.644
86 | N#CC1=C(N)C2=CCCC[C@H]2[C@H](c2ccccc2)C1(C#N)C#N | -1.18
87 | Cc1ccc(CC(=O)O/N=C(\N)c2cccc([N+](=O)[O-])c2)cc1 | -0.143
88 | Cc1csc(Nc2ccccc2C(F)(F)F)n1 | -0.301

Row | SMILES | z-score
89 | CCCNC(=O)c1cccc(C(F)(F)F)c1 | -0.236
90 | Cc1ccc(C(=O)N(CC(=O)NC2CCCCC2)c2ccccc2C)s1 | -0.171
91 | CC(C)(C)NC(=O)CN(C(=O)C1CSC(=O)C1)c1ccc2c(c1)OCCO2 (centres undefined) | -0.19
92 | O=C(O)c1ccc2c(=O)n3c(nc2c1)/C(=C/c1ccccc1C(F)(F)F)CCCC3 | -1.78
93 | Cc1ccccc1NC(=O)COC(=O)/C=C/c1cn(-c2ccccc2)nc1-c1cccnc1 | -0.0968
94 | Cc1cc2n(n1)C(c1cn(-c3ccccc3)nc1C)Nc1ccccc1-2 (centres undefined) | -2.98
95 | O=C(CSCc1c(F)cccc1Cl)NCC1CCCO1 (centres undefined) | 0.24
96 | CC(=O)N/C(=N/c1nc(C)cc(C)n1)Nc1ccc(NC(C)=O)cc1 | -0.162
97 | Cc1oc(C(=O)O)cc1COc1ccccc1Cl | -0.082
98 | CCC1CCCCN1C(=S)NC1CCCCC1 (centres undefined) | -0.361
99 | Cc1[nH]c2ccccc2c1C(=O)CN1CCC(C(N)=O)(N2CCCCC2)CC1 | 0.069
100 | O=C(Nc1cccs1)Nc1c(F)c(F)c(F)c(F)c1F | 0.248
101 | CCOC(=O)c1cnn2c(C(F)F)cc(C3CC3)nc12 | -0.136
102 | CC(=O)C1=C(C)NC(=O)NC1c1cc(Br)ccc1OCC#N (centres undefined) | 0.116
103 | CC(C)Cn1c(O)c2ccc(C(=O)N=NC(=O)c3cccnc3)cc2c1O | -0.0881
104 | CCCc1cc(-c2[nH]ncc2-c2ccc3c(c2)OCCCO3)c(O)cc1OC | 0.497
105 | CS(=O)(=O)N(Cc1ccc(Cl)cc1)c1ccc(C(=O)Nc2cccnc2)cc1 | -0.045
106 | C=CCN(C(=O)CNC(=O)c1ccco1)C(C(=O)NC1CCCCC1)c1ccc(F)cc1 (centres undefined) | 0.437
107 | O=C(c1ccc2c3c(cccc13)C(=O)N(O)C2=O)N1CCCCC1 | 0.845
108 | CCOC(=O)Cc1nnc(NC(=O)COc2ccc(F)cc2)s1 | -0.124
109 | Cc1ccc(N2C(=O)c3ccc(C(=O)N4CCOCC4)cc3C2=O)cc1C | -0.248
